# In all, about 310,000 compounds went through this assay and about 2,200 (0.71%) showed an effect of 50% or more. The effect is printed as a negative number. Some of the results follow.
# Target: human ether-à-go-go-related gene (hERG) potassium channel (human, UniProt Q12809)
# Experiment: primary screen, population patch clamp on CHO cells stably expressing hERG
# Sequence of human ether-à-go-go-related gene (hERG) potassium channel (Q12809 whole entry, looked up): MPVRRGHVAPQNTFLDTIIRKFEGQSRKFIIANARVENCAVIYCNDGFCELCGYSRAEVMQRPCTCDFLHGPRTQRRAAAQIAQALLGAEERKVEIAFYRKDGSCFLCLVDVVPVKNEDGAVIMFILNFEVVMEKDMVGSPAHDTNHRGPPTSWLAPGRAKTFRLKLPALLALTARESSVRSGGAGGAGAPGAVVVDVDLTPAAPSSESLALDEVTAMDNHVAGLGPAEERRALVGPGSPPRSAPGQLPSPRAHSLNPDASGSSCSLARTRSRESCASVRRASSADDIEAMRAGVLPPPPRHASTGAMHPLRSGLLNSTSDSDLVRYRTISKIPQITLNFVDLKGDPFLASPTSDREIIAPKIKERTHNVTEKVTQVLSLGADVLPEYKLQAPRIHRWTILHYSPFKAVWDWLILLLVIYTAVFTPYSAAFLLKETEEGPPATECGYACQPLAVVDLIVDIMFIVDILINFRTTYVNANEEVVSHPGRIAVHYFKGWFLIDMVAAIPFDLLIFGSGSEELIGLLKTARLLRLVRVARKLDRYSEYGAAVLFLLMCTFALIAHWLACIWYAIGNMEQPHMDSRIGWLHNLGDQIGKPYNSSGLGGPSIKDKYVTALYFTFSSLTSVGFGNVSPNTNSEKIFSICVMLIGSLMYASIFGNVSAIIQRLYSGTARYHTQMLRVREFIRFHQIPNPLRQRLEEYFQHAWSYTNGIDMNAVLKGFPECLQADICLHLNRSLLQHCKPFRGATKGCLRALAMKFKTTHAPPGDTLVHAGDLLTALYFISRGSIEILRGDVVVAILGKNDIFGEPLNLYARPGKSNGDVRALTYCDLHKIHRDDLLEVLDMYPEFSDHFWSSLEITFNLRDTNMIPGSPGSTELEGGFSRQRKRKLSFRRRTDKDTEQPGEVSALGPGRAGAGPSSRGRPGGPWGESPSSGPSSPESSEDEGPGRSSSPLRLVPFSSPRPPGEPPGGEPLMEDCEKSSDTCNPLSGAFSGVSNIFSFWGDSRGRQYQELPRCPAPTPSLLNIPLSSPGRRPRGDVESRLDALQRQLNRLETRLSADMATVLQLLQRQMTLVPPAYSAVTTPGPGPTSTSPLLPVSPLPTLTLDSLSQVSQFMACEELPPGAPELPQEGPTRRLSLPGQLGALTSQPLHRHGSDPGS
row,Structure (SMILES),"hERG current change (%, negative = inhibition) at 1uM [%]"
1,CC(=O)C(C)Oc1ccc2c3c(c(=O)oc2c1C)CCCC3 (centres unmarked),21.1
2,O=c1cc([O-])n(Cc2ccc(F)cc2)c(=O)[nH]1.[NH4+],16
3,CCOc1ccc(C(=O)NCC(=O)N2CCC3(CC2)NCCc2[nH]cnc23)cc1,3.95
4,COc1ccc(C(CCN2CCOCC2)c2c(O)cc(OC)cc2OC)cc1 (centres unmarked),-9.97
5,O=C(NNC(=O)c1ccco1)c1cccc(Br)c1,1.74
6,CC(=O)c1ccc(N2C(=O)[C@@H]3[C@H](C2=O)[C@H]2c4ccccc4C=NN2[C@@H]3C(C)=O)cc1,24.2
7,O=C(O)C(Cc1ccccc1)NS(=O)(=O)c1ccc(Cl)cc1 (centres unmarked),9.27
8,Cc1cccc(-n2c(C)cc(/C=C3/C(=N)N4C(c5ccccc5)=CSC4=NC3=O)c2C)c1,4.26
9,C=CCN1c2ccccc2[C@]23C[C@@H](C(=O)OC)N(C(=O)OCC)C2=NC(C(=O)OC)=C(C(=O)OC)[C@H]13,10.2
10,CCC(=O)OCC(=O)[C@@]1(OC(=O)CC)[C@@H](C)C[C@H]2[C@@H]3CCC4=CC(=O)C=C[C@]4(C)[C@@]3(Cl)[C@@H](O)C[C@@]21C,8.68
11,Cn1cccc1Cc1nnc(SCC(=O)NCC2CCCO2)n1-c1ccc(F)cc1 (centres unmarked),7.39
12,COc1ccc(N(C(=O)Cn2nnc(-c3ccc(F)cc3)n2)C(C)C(=O)NC2CCCC2)cc1OC (centres unmarked),9.57
13,Cc1[nH][nH]c(=O)c1C(c1ccc(O)c([N+](=O)[O-])c1)c1c(C)[nH][nH]c1=O,16.9
14,O=C(/C=C/c1ccccc1Br)c1ccc2c(c1)OCO2,-2.25
15,CCOC(=O)c1sc(NC(=O)c2ccccc2)cc1C,9.19
16,CC1CCCCC1NC(=O)NC(=O)COC(=O)C1=NN(c2ccccc2)C(=O)CC1 (centres unmarked),10.5
17,CC1(C)Cc2nc3sc4c(=O)n(CC(=O)NCc5ccco5)cnc4c3cc2CO1,6.61
18,Cc1ccc(CC(=O)c2ccc(Cl)cc2)cc1,8.47
19,CCn1nc([N+](=O)[O-])c(C(C#N)c2nc3ccccc3n2C)c(Cl)c1=O (centres unmarked),11
20,Cc1cccc(NC(=O)CSCc2nc3c(nnn3Cc3ccc(F)cc3)c(=O)[nH]2)c1C,8.63
21,COc1ccc(Oc2nccc(-c3ccc(Cl)cc3)n2)cc1,10.8
22,CCOC(=O)C(NC(C)=O)(Nc1ccc(S(=O)(=O)Nc2ccncn2)cc1)C(F)(F)F (centres unmarked),11.4
23,Cn1c(=O)oc2cc(S(=O)(=O)N3CCC(C(=O)NCc4ccccc4)CC3)ccc21,4.58

row,Structure (SMILES),"hERG current change (%, negative = inhibition) at 1uM [%]"
1,Cc1cc2ccccc2n1CCNC(=O)c1ccc(Br)o1,4.5
2,Cc1ccc(N(C(=O)CNC(=O)c2ccco2)C(C(=O)NC2CCCC2)c2cccnc2)cc1C (centres unmarked),8.33
3,CC(NC(=O)Cn1ccsc1=N)C12CC3CC(CC(C3)C1)C2.Cl (centres unmarked),3.15
4,CCOc1ccccc1CN1C2CCC1CC(c1ccc(C)cc1)C2 (centres unmarked),-28.6
5,CC1CCC2(CC1)NC(=O)N(CC(=O)Nc1ccc3c(c1)OCCO3)C2=O (centres unmarked),17
6,CCc1cccc(CC)c1NC(=O)c1ccccc1,12.7
7,Cc1cccc(C)c1NC(=O)N1CC=C(n2c(=O)[nH]c3ccccc32)CC1,1.88
8,O=C(NCCc1cn2ccccc2n1)c1cc(COc2ccc3ncccc3c2)on1,7.59
9,S=c1[nH]ccn1-c1c(Cl)cccc1Cl,13.5
10,Cc1ccc(C)c(NC(=O)CN(C)C(=O)c2ccc(Cl)nc2)c1,3.4
11,O=C(CSC1=NNC(c2ccccn2)S1)Nc1cccc(Cl)c1 (centres unmarked),15
12,COc1cccc(NC(=O)CN(C)C(=O)c2ccccc2OCc2c(C)noc2C)c1,8.16
13,CC(C)(C)c1ccc(OCCCCCCN2CCNCC2)cc1,12.1
14,O=S(=O)(c1ccc(Oc2ccc(Br)cc2F)nc1)N1CCCCC1,-1.45
15,CCOc1ccc(Br)cc1S(=O)(=O)N1CCC(C(=O)O)CC1,6.21
16,Cc1cc(=O)oc2c(CN(CC(C)C)CC(C)C)c(O)ccc12,9.07
17,CCOCCn1c(N2CCCC2)nc2c1c(=O)n(C)c(=O)n2C,6.71
18,C=CCN=C1NN=C(c2cc(C)n(CC=C)c2C)CS1,10.8
19,O=C(NNC(=S)Nc1ccc(F)c(Cl)c1)C1CC1,14.1
20,c1ccc2c(CSc3ncnc4nc[nH]c34)cccc2c1,13.6
21,Cc1nc(N)sc1N=Nc1ccc(Br)cc1,16.2
22,COc1ccc(-c2nnc(SCc3ccccc3)n2N)cc1,0.891
23,CC(C)OC(=O)c1ccc(COC(=O)c2cnccn2)cc1,7.89

row,Structure (SMILES),"hERG current change (%, negative = inhibition) at 1uM [%]"
1,O=[N+]([O-])c1ccc(/C=N/N2CCN(c3ccncc3S(=O)(=O)N3CCCCC3)CC2)cc1,1.96
2,CC1SC(c2ccc(F)cc2)NC1=O (centres unmarked),15.1
3,Cc1c(N=Cc2ccc(Br)s2)cccc1[N+](=O)[O-],-6.3
4,O=C(Nc1cc(C(F)(F)F)ccc1N1CCCC1)c1cccnc1,-5.24
5,Cc1[nH]c(C)c2c(=O)n(Cc3ccc(Cl)cc3)ncc12,8.19
6,NC1=NC(c2cn[nH]c2-c2ccc(F)cc2)n2c(nc3ccccc32)N1 (centres unmarked),17.9
7,O=c1[nH][nH]c(=S)n1C1CCCCC1,10.4
8,O=C(O)Cn1c(=O)c2c(c3ccccc31)CCC2,11.5
9,COc1cccc(-n2nnc(S(=O)(=O)c3ccc(C)cc3)c2N)c1,11.4
10,COc1ccccc1C(=O)NCCSCc1c(F)cccc1Cl,10.4
11,N#CC1(NC(=O)COC(=O)c2ccccc2[N+](=O)[O-])CCCCC1,2.48
12,CCCCOC(=O)Nc1ccc(C(=O)OCCC)cc1,-6.68
13,COc1ccc(/C(O)=C2/C(=O)C(=O)N(CCCN3CCOCC3)C2c2ccc(C(C)C)cc2)cc1 (centres unmarked),16.7
14,O=C(O)C(=O)O.Oc1ccccc1CN1CCC(C(O)(c2ccccc2)c2ccccc2)CC1,-1.01
15,CCN(CC)CCCNC(=O)CCC(=O)Nc1ccc2nc(N3CCCCC3)cc(C)c2c1,-0.134
16,O=C(CNc1ccccc1Cl)N/N=C1\CCCc2ccccc21,19.4
17,O=S(=O)(Cc1ccccc1)Nc1cccc(F)c1,13.4
18,Cc1nnc(N/N=C/c2ccccc2O)n1N,-1.76
19,CCCn1c(SCC(=O)Nc2cccc(S(=O)(=O)N3CCCC3)c2)n[nH]c1=O,11.4
20,CC(C)(C)n1nc2c(c1NC(=O)Cc1ccc(F)cc1)CS(=O)(=O)C2,6.24
21,S=C(NCCc1ccccc1)N1CCn2cccc2C1c1cccnc1 (centres unmarked),3.03
22,Cc1ccc(-c2noc(CCC(=O)N3CCN(c4cccc(C(F)(F)F)c4)CC3)n2)cc1,11.4
23,Cc1nc2ccccc2n1CC(=O)OCC(=O)NCc1ccccc1,12.1

row,Structure (SMILES),"hERG current change (%, negative = inhibition) at 1uM [%]"
1,CC(NC(=O)COC(=O)c1cccs1)c1ccccc1 (centres unmarked),17
2,C/C(O)=C(/N=O)C(=O)Nc1ccccc1,13.4
3,COCCNC(=O)Cn1nc(C(F)(F)F)c(Br)c1C,4.13
4,COC(=O)CNC(=O)Cn1cnc2sc(C)c(S(=O)(=O)N3CCN(c4ccccc4OC)CC3)c2c1=O,9.85
5,O=C(c1cc2cc(F)ccc2[nH]1)N1CCN(Cc2ccc3c(c2)OCO3)CC1,-0.23
6,COc1ccccc1CNC(=O)C(=O)NCCC1CCCCN1S(=O)(=O)c1ccccc1 (centres unmarked),9.75
7,O=C(Nc1cccnc1)c1cccc(NC(=O)c2ccco2)c1,5.86
8,O=S(=O)(c1ccc2ccccc2c1)N1CCOCC1,5.94
9,Cc1oc(=O)c(NC(=O)c2cccc(Cl)c2)cc1C(=O)c1ccccc1,5.39
10,O=C(Cn1nnc(-c2ccc3c(c2)OCO3)n1)NCc1ccco1,5.44
11,CC1CCCCN1CC(=O)c1c(N)n(Cc2ccccc2)c(=O)n(C)c1=O (centres unmarked),4.41
12,CC(=O)Nc1ccc(NC(=O)C2CCCN(c3ncccn3)C2)cc1 (centres unmarked),-0.454
13,CC(C)(C)NC(=O)C1CCN(S(=O)(=O)c2cccc3nsnc23)CC1,13.5
14,N=c1c2c(-c3ccccc3)c(-c3ccccc3)oc2ncn1Cc1ccco1,9.94
15,CCN(Cc1ccccc1)C(=O)COc1cc(=O)n(CC)c2ccccc12,8.35
16,C/C(=N\NC(=O)C(=O)Nc1ccc(C)c(Cl)c1)c1ccncc1,-8.26
17,Cc1cc(C)n(Cc2ccc(Cl)cc2Cl)c(=O)c1S(=O)(=O)c1ccccc1,14.2
18,Cc1[nH]c(=O)c(C#N)c(C)c1CCC(=O)NCc1ccc(Cl)cc1,13.2
19,C/C(=C\c1ccc(N(C)C)cc1)[N+](=O)[O-],10.6
20,Cc1ccccc1CSc1nc2[nH]ncc2c(=O)[nH]1,16.3

# Reference: paper PMC4336329 (PLoS ONE, 2015)
